Data taken from PubChem BioAssay AID204 (DTP/NCI, 2004).
Inconclusive results and toxic doses are left out. Certain results were filed several times, with different values. Only these are listed. An entry can have further records. The records of an entry are repeats (runs, samples, wells, individuals or studies).

Tested on: BDF1 mice, P288 methotrexate-resistant leukemia, survival T/C
Assay: NCI In Vivo Anticancer Drug Screen. Data for tumor model P288 Lymphocytic Leukemia resistant to methotrexate; NSC 740 (intraperitoneal) in B6D2F1 (BDF1) mice
Details: endpoint: median survival time, schedule: Q01DX010 (ip), higher = longer survival
Method: The antitumor activity of compounds was measured in mice bearing transplantable tumors. Survival or tumor size were measured and the results are expressed as the measurement made in the treated group (T) divided by the measurement made in the vehicle treated control group (C). The tumor model used in this assay is P288 Lymphocytic Leukemia resistant to methotrexate; NSC 740 (intraperitoneal) in B6D2F1 (BDF1) mice

C=CC(CN1CC1)OC(C)=O (stereo unspecified)
T/C (dose: 8.0 mg/kg/injection, vehicle: saline): 122 % of control and 150 % of control

Nc1nc(=S)c2[nH]cnc2[nH]1
T/C (dose: 10.0 mg/kg/injection, vehicle: other): 122 % of control and 150 % of control

C1CN1c1nc(N2CC2)nc(N2CC2)n1
T/C (dose: 0.5 mg/kg/injection, vehicle: saline): 100 % of control and 155 % of control

O[C@H](CN1CC1)[C@@H](O)CN1CC1
T/C (dose: 125.0 micrograms/kg/injection, vehicle: saline): 113 % of control and 159 % of control
T/C (dose: 500.0 micrograms/kg/injection, vehicle: saline): 109 % of control, 153 % of control, 160 % of control

NC(Cc1ccc(N(CCCl)CCCl)cc1)C(=O)O (stereo unspecified)
T/C (dose: 2.5 mg/kg/injection, vehicle: saline): 113 % of control and 150 % of control
